For some assays here: What follows is the remainder of the data, with few or none of the strong results. The entries are a selection whose mix differs from that of the whole data set.
The compounds below were run against Protein kinase C beta type (Homo sapiens) (UniProt P05771). Settings: at 1 µM.
Sequence of UniProt P05771 (P05771 whole entry, looked up): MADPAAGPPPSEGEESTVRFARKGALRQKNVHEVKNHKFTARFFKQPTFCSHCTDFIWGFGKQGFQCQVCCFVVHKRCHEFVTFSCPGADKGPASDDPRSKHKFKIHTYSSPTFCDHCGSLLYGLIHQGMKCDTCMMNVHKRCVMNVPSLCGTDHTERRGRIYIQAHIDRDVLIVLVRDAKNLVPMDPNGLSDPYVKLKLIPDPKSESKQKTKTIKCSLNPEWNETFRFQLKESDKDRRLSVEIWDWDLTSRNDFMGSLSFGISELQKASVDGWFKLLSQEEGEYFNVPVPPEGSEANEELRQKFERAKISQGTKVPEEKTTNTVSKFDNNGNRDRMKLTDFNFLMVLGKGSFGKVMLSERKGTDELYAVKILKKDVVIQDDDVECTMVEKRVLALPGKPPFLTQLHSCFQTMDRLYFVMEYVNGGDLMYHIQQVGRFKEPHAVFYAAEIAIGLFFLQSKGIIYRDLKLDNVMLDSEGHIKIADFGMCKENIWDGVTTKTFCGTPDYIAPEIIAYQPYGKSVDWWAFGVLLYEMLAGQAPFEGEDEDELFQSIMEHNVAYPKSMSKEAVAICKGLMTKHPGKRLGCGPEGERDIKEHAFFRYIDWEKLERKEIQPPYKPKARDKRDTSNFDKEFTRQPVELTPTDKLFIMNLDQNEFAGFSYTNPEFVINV

SMILES | inhibition [%]
O=C1NC(=O)C(c2ccccc2Cl)=C1Nc1cc(Cl)c(O)c(Cl)c1 | 3.15
Fc1ccc(-c2ncn(C3CCNCC3)c2-c2ccnc(Oc3cccc(F)c3)n2)cc1 | 6.85
O=C1NC(=O)C(c2cccc([N+](=O)[O-])c2)=C1Nc1cc(Cl)c(O)c(Cl)c1 | 3.52
Fc1ccc(Oc2nccc(-c3c(-c4ccc(F)cc4)ncn3C3CCNCC3)n2)cc1 | 3.88
CC(C)(C)c1ccc(Oc2nccc(-c3c(-c4ccc(F)cc4)ncn3C3CCNCC3)n2)cc1 | 5.68
COc1ccccc1Oc1nccc(-c2c(-c3ccc(F)cc3)ncn2C2CCNCC2)n1 | 3.22
Cc1cccc(Oc2nccc(-c3c(-c4ccc(F)cc4)ncn3C3CCNCC3)n2)c1C | 5.33
Fc1ccc(-c2ncn(C3CCNCC3)c2-c2ccnc(Oc3cccc(C(F)(F)F)c3)n2)cc1 | 4.66
Fc1ccc(-c2ncn(C3CCNCC3)c2-c2ccnc(Oc3ccc(Cl)cc3)n2)cc1 | 5.01
CS(=O)(=O)c1ccc(Oc2nccc(-c3c(-c4ccc(F)cc4)ncn3C3CCNCC3)n2)cc1 | 3.5
NC(=O)CCc1ccccc1Oc1nccc(-c2c(-c3ccc(F)cc3)ncn2C2CCNCC2)n1 | 3.24
O=C1NC(=O)C(c2ccccc2)=C1Nc1ccccc1 | 11.6
COc1ccccc1C1=C(Nc2ccccc2)C(=O)NC1=O | 24.7
O=C(O)c1ccc(Oc2nccc(-c3c(-c4ccc(F)cc4)ncn3C3CCNCC3)n2)cc1 | 3.57

Each compound was assayed against T1, Serine/threonine-protein kinase D1 (Homo sapiens) (UniProt Q15139). Settings: at 0.1 µM.
T1 sequence (whole entry): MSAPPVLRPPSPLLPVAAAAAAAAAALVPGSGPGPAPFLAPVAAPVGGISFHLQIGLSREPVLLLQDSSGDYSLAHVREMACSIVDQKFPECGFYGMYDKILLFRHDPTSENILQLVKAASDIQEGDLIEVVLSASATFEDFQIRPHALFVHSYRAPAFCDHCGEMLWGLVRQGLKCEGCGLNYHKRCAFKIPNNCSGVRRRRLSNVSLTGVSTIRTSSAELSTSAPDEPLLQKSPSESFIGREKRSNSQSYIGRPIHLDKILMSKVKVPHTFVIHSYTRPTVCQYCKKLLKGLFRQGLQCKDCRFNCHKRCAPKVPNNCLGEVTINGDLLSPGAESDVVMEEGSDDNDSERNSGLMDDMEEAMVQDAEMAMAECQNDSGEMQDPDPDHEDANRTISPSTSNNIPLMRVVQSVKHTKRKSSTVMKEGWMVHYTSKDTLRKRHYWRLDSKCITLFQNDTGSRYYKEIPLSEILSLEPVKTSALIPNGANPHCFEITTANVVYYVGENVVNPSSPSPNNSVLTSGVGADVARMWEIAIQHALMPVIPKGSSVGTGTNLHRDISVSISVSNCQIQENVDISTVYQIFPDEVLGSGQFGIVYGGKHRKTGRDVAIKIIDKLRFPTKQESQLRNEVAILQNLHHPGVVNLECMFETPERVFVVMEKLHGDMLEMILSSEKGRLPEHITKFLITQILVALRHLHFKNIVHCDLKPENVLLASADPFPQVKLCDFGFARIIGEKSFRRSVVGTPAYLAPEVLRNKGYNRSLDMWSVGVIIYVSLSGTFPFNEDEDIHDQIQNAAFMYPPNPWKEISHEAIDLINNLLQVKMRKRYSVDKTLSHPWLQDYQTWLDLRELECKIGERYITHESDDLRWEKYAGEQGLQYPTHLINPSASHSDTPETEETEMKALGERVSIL

SMILES | inhibition [%]
O=C1NC(=O)C(c2ccccc2Cl)=C1Nc1cc(Cl)c(O)c(Cl)c1 | 2.88
Fc1ccc(-c2ncn(C3CCNCC3)c2-c2ccnc(Oc3cccc(F)c3)n2)cc1 | 4.11
O=C1NC(=O)C(c2cccc([N+](=O)[O-])c2)=C1Nc1cc(Cl)c(O)c(Cl)c1 | 1.2
Fc1ccc(Oc2nccc(-c3c(-c4ccc(F)cc4)ncn3C3CCNCC3)n2)cc1 | 0.15
CC(C)(C)c1ccc(Oc2nccc(-c3c(-c4ccc(F)cc4)ncn3C3CCNCC3)n2)cc1 | 3.14
COc1ccccc1Oc1nccc(-c2c(-c3ccc(F)cc3)ncn2C2CCNCC2)n1 | 6.05
Cc1cccc(Oc2nccc(-c3c(-c4ccc(F)cc4)ncn3C3CCNCC3)n2)c1C | 6
Fc1ccc(-c2ncn(C3CCNCC3)c2-c2ccnc(Oc3cccc(C(F)(F)F)c3)n2)cc1 | 4.47
Fc1ccc(-c2ncn(C3CCNCC3)c2-c2ccnc(Oc3ccc(Cl)cc3)n2)cc1 | -0.41
CS(=O)(=O)c1ccc(Oc2nccc(-c3c(-c4ccc(F)cc4)ncn3C3CCNCC3)n2)cc1 | 3.79
NC(=O)CCc1ccccc1Oc1nccc(-c2c(-c3ccc(F)cc3)ncn2C2CCNCC2)n1 | -1.84
O=C1NC(=O)C(c2ccccc2)=C1Nc1ccccc1 | 4.35
COc1ccccc1C1=C(Nc2ccccc2)C(=O)NC1=O | 2.56
O=C(O)c1ccc(Oc2nccc(-c3c(-c4ccc(F)cc4)ncn3C3CCNCC3)n2)cc1 | 5.26

What follows are compounds tested against T1, Serine/threonine-protein kinase D1 (Homo sapiens). Settings: at 1 µM.

SMILES | inhibition [%]
O=C1NC(=O)C(c2ccccc2Cl)=C1Nc1cc(Cl)c(O)c(Cl)c1 | 4.09
Fc1ccc(-c2ncn(C3CCNCC3)c2-c2ccnc(Oc3cccc(F)c3)n2)cc1 | 7.47
O=C1NC(=O)C(c2cccc([N+](=O)[O-])c2)=C1Nc1cc(Cl)c(O)c(Cl)c1 | 1.22
Fc1ccc(Oc2nccc(-c3c(-c4ccc(F)cc4)ncn3C3CCNCC3)n2)cc1 | 1.01
CC(C)(C)c1ccc(Oc2nccc(-c3c(-c4ccc(F)cc4)ncn3C3CCNCC3)n2)cc1 | 10.4
COc1ccccc1Oc1nccc(-c2c(-c3ccc(F)cc3)ncn2C2CCNCC2)n1 | 13.8
Cc1cccc(Oc2nccc(-c3c(-c4ccc(F)cc4)ncn3C3CCNCC3)n2)c1C | 18.2
Fc1ccc(-c2ncn(C3CCNCC3)c2-c2ccnc(Oc3cccc(C(F)(F)F)c3)n2)cc1 | 7.95
Fc1ccc(-c2ncn(C3CCNCC3)c2-c2ccnc(Oc3ccc(Cl)cc3)n2)cc1 | 1.79
CS(=O)(=O)c1ccc(Oc2nccc(-c3c(-c4ccc(F)cc4)ncn3C3CCNCC3)n2)cc1 | 5.15
NC(=O)CCc1ccccc1Oc1nccc(-c2c(-c3ccc(F)cc3)ncn2C2CCNCC2)n1 | -1.13
O=C1NC(=O)C(c2ccccc2)=C1Nc1ccccc1 | 7.48
COc1ccccc1C1=C(Nc2ccccc2)C(=O)NC1=O | 4.49
O=C(O)c1ccc(Oc2nccc(-c3c(-c4ccc(F)cc4)ncn3C3CCNCC3)n2)cc1 | 6.33

What follows are compounds tested against T2, Serine/threonine-protein kinase D2 (Homo sapiens) (UniProt Q9BZL6). Settings: at 0.1 µM.
T2 sequence (whole entry): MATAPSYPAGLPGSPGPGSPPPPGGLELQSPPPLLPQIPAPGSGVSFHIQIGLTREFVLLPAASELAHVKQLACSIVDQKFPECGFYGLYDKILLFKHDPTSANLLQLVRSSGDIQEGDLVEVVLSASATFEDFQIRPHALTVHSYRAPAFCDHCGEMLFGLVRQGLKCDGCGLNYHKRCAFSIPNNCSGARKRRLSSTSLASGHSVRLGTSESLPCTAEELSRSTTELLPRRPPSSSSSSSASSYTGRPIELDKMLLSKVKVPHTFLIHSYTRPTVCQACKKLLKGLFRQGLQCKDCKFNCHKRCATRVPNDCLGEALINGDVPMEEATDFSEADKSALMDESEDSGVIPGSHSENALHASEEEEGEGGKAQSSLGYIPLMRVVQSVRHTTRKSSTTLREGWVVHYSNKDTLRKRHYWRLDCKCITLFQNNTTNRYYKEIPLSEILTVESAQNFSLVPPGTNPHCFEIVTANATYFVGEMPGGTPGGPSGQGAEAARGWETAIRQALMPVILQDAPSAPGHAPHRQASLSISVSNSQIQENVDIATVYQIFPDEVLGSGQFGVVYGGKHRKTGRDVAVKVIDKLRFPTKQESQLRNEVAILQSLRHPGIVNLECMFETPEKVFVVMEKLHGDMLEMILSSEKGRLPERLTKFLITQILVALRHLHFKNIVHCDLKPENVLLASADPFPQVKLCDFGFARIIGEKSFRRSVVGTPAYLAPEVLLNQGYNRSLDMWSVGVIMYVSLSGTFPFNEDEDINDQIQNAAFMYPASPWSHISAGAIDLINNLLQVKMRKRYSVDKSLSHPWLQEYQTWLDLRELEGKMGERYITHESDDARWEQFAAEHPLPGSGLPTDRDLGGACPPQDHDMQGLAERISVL

SMILES | inhibition [%]
O=C1NC(=O)C(c2ccccc2Cl)=C1Nc1cc(Cl)c(O)c(Cl)c1 | 2.37
Fc1ccc(-c2ncn(C3CCNCC3)c2-c2ccnc(Oc3cccc(F)c3)n2)cc1 | 4.03
O=C1NC(=O)C(c2cccc([N+](=O)[O-])c2)=C1Nc1cc(Cl)c(O)c(Cl)c1 | 3.15
Fc1ccc(Oc2nccc(-c3c(-c4ccc(F)cc4)ncn3C3CCNCC3)n2)cc1 | -0.17
CC(C)(C)c1ccc(Oc2nccc(-c3c(-c4ccc(F)cc4)ncn3C3CCNCC3)n2)cc1 | 3.64
COc1ccccc1Oc1nccc(-c2c(-c3ccc(F)cc3)ncn2C2CCNCC2)n1 | 6.22
Cc1cccc(Oc2nccc(-c3c(-c4ccc(F)cc4)ncn3C3CCNCC3)n2)c1C | 5.84
Fc1ccc(-c2ncn(C3CCNCC3)c2-c2ccnc(Oc3cccc(C(F)(F)F)c3)n2)cc1 | 4.73
Fc1ccc(-c2ncn(C3CCNCC3)c2-c2ccnc(Oc3ccc(Cl)cc3)n2)cc1 | 1.44
CS(=O)(=O)c1ccc(Oc2nccc(-c3c(-c4ccc(F)cc4)ncn3C3CCNCC3)n2)cc1 | 3.72
NC(=O)CCc1ccccc1Oc1nccc(-c2c(-c3ccc(F)cc3)ncn2C2CCNCC2)n1 | -1.3
O=C1NC(=O)C(c2ccccc2)=C1Nc1ccccc1 | 4.88
COc1ccccc1C1=C(Nc2ccccc2)C(=O)NC1=O | 7.77
O=C(O)c1ccc(Oc2nccc(-c3c(-c4ccc(F)cc4)ncn3C3CCNCC3)n2)cc1 | 4.51
